In the supplement of paper PMC4967469:
Lines with a small IC50 respond at low doses; a fit beyond the top or the lowest dose is shown as a bound at that dose. AUC, from the same fit, is the share of area under the viability curve across the 256-fold dose range; the more sensitive the line, the further below 1. For some of these results: The top dose, if marked as inferred, comes from the curve model; the source does not state it. For some of these results: Where an entry number is given, a second screen of the drug exists; the two often differ.

What was measured:
Test in all cases: Viability of human cancer cell lines after 72 h of drug (GDSC screen)
XMD13-2 = compound: O=C(NC1CC1)c1cccc(-c2ccc3c(NC(=O)C4CC4)n[nH]c3c2)c1 [XMD13-2]; settings: top dose 10.24 µM; top dose inferred
Method: (§1)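 Human cancer cell lines in 384-well plates, medium with 10% serum, drug for 72 h over a 256-fold dose range (nine 2-fold or five 4-fold steps up to the top dose). Adherent lines were fixed and stained with the nucleic acid dye Syto60, suspension lines read with resazurin; signal relative to control wells, capped at 0 and 100%. One two-parameter sigmoid per drug and line, fitted in a mixed model over all curves with the slope shared within a line.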

SNX-2112 = compound: CC1(C)CC(=O)c2c(C(F)(F)F)nn(-c3ccc(C(N)=O)c(N[C@H]4CC[C@H](O)CC4)c3)c2C1 [SNX-2112]; settings: top dose 2.56 µM
Method: as §1

PF-562271 = compound: CN(c1ncccc1CNc1nc(Nc2ccc3c(c2)CC(=O)N3)ncc1C(F)(F)F)S(C)(=O)=O [PF-562271]; settings: top dose 2.56 µM; top dose inferred
Method: as §1

Vinblastine = compound: CC[C@]1(O)C[C@@H]2CN(CCc3c([nH]c4ccccc34)[C@@](C(=O)OC)(c3cc4c(cc3OC)N(C)[C@H]3[C@@](O)(C(=O)OC)[C@H](OC(C)=O)[C@]5(CC)C=CCN6CC[C@]43[C@@H]65)C2)C1 [Vinblastine]; settings: top dose 0.1 µM; top dose inferred
Method: as §1

Afatinib = compound: CN(C)C/C=C/C(=O)Nc1cc2c(Nc3ccc(F)c(Cl)c3)ncnc2cc1O[C@H]1CCOC1 [Afatinib]
Method: as §1

[1] = top dose 0.5 µM, screen: GDSC drug entry 1032
[2] = top dose 10 µM, screen: GDSC drug entry 1377, top dose inferred

| Cell Line | AUC (XMD13-2) | IC50 (XMD13-2) [µM] | AUC (SNX-2112) | IC50 (SNX-2112) [nM] | AUC (PF-562271) | IC50 (PF-562271) [nM] | AUC (Vinblastine) | IC50 (Vinblastine) [nM] | AUC (Afatinib; [1]) | IC50 (Afatinib; [1]) [nM] | AUC (Afatinib; [2]) | IC50 (Afatinib; [2]) [nM] |
| --- | --- | --- | --- | --- | --- | --- | --- | --- | --- | --- | --- | --- |
| HOS (osteosarcoma, adherent) | 0.992 | > 10.2 | 0.992 | > 2560 | 0.926 | > 2560 | 0.511 | 6.68 | 0.99 | > 500 | 0.942 | > 10000 |
| HSC-2 (head and neck, adherent) | 0.967 | > 10.2 | 0.66 | 428 | 0.83 | 1440 | 0.682 | 19.3 | 0.719 | 123 | 0.623 | 1330 |
| HSC-39 (stomach, suspension) | 0.867 | 7.19 | 0.989 | > 2560 | 0.99 | > 2560 | 0.519 | 6.99 | 0.983 | > 500 | 0.972 | > 10000 |
| HT55 (large intestine, adherent) | 0.971 | > 10.2 | 0.931 | > 2560 | 0.981 | > 2560 | 0.945 | > 100 | 0.952 | > 500 |  |  |
| HT (B-cell lymphoma, suspension) | 0.933 | > 10.2 | 0.503 | 163 | 0.957 | > 2560 | 0.699 | 21.5 | 0.989 | > 500 | 0.854 | 6910 |
| HT-3 (cervix, adherent) | 0.966 | > 10.2 | 0.803 | 1300 | 0.876 | > 2560 | 0.741 | 30.9 | 0.894 | > 500 | 0.846 | 7470 |
| HT-29 (large intestine, adherent) | 0.882 | > 10.2 | 0.335 | 55.6 | 0.901 | > 2560 | 0.615 | 12.9 | 0.966 | > 500 | 0.986 | > 10000 |
| HT-115 (large intestine, adherent) | 0.983 | > 10.2 | 0.981 | > 2560 | 0.957 | > 2560 | 0.93 | > 100 | 0.897 | > 500 | 0.916 | > 10000 |
| HT-1080 (fibrosarcoma, adherent) | 0.983 | > 10.2 | 0.903 | > 2560 | 0.937 | > 2560 | 0.444 | 4.48 | 0.989 | > 500 | 0.988 | > 10000 |
| HT-1376 (bladder, adherent) | 0.985 | > 10.2 | 0.977 | > 2560 | 0.945 | > 2560 | 0.79 | 53.6 | 0.904 | > 500 | 0.882 | > 10000 |
| HUTU-80 (digestive system, adherent) | 0.822 | 4.67 | 0.216 | 28.6 | 0.81 | 1070 | 0.603 | 11.3 | 0.97 | > 500 | 0.991 | > 10000 |
